# PubChem BioAssay AID1345083 (National Center for Advancing Translational Sciences (NCATS), 2018)
# Out of some 94,000 compounds screened, about 6,200 (6.6%) were called active. The inconclusive results got no clear call from the source; some entries with a clear call stand among them for comparison. Calls follow the shape of the dose curve; as a rule, active = well fitted inhibition curve with a large enough effect; inconclusive = small, poorly fitted or top-dose-only effect; inactive = flat fitted curve, though single readings scatter. Potencies of inconclusive entries are doubtful fits and often do not repeat.
# Experiment: Cytotoxic Profiling in HEK 293 Cell Line of Diverse Libraries Using Quantitative High-Throughput Screening; also: nearly all actives have a fitted effect of over 60% in size
# Details: HEK 293 viability, ATP luminescence (CellTiter-Glo), 48-72 h; activity change, negative = cytotoxicity: at 115 µM (top of the series) unless noted; series mostly up to 115 µM
# Outline: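 HEK 293 cells at 250 cells/well were exposed to compounds by pintool transfer for 48 or 72 hr at 37 degree Celsius, 5% CO2. Viability was read as ATP-coupled luminescence with CellTiter-Glo after 10 min at room temperature.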
# % is scaled to controls: 0 for no effect and ±100 for the full control effect; potency is read from the fitted curve at half-maximal effect; tags tell the direction and shape of the fitted curve.
Structure (SMILES),"activity change, negative = cytotoxicity",Potency
CNC(=O)c1cc(C2CC2)nc2onc(C3CCN(C(=O)c4ccccc4)C3)c12 (configuration not stated),inactive: -10.7%,
O=C(NCCc1c[nH]c2ccccc12)c1c(OCC2CC2)cc(=O)n2c1CCOCC2,,"inconclusive: 89.1 µM [inhibitor, single point]"
COc1ccc(C2CC(C(=O)NCc3ccccc3)CN(C(=O)C3CC3)C2)cc1OC (configuration not stated),,"inconclusive: 10 µM [inhibitor, full curve, poor fit]"
COC(=O)C1=C(C)N=C2SC=C(CC(=O)NCCC(C)C)N2C1c1ccccc1Cl (configuration not stated),,"inconclusive: 44.7 µM [inhibitor, partial curve, poor fit]"
O=C(NC1CCNCC1)c1cc(C2CC2)nc2onc(C3CCCN3)c12 (configuration not stated),inactive: 3.85%,
O=C1COc2ccc(-c3ccoc3)nc2CN1CCOc1ccccc1,,"inconclusive: 100 µM [inhibitor, partial curve]"
O=C(CCc1ccccc1)N1C[C@H]2OC(=O)N(CCCN3CCOCC3)[C@H]2C1,inactive: -7.12%,
O=C(NC1CCCCC1)c1ccc2nnc(Cc3ccc(Cl)cc3)n2c1,inactive: -29.2%,
COc1ccc(-c2cc(N3CCC(NC(=O)c4ccc5cc[nH]c5c4)CC3)n[nH]2)cc1,,"inconclusive: 50.1 µM [inhibitor, partial curve, poor fit]"
COc1ccc(CNc2ncnc3c2CN(C2CCC2)C(=O)CN3C)cc1,inactive: -21.2%,
O=C(c1cncc(Br)c1)N1CCC(CCOc2ccccc2F)C1 (configuration not stated),,active: 39.8 µM
Cc1nc(-c2ccncc2)ncc1C(C)NC(=O)C1=NN(C)C(=O)CC1 (configuration not stated),inactive: 2.89%,
Cc1cnc(CC2CCCN(C(=O)Cc3ccccc3)C2)n1C(C)C (configuration not stated),inactive: -11.2%,
O=C(c1ccsc1)N1CCc2c(nc3cc(-c4ccccc4Cl)[nH]n3c2=O)C1,inactive: -11.8%,
CC(C)c1ccc(S(=O)(=O)N2CCCC2c2nncn2C2CCCC2)cc1 (configuration not stated),inactive: 4.37%,
Cc1ccc(C(=O)N[C@H]2C[C@@H](c3nc(-c4ccc(C)cc4)no3)N(C)C2)cc1,inactive: -0.977% [at 172 µM],
CCOc1cccc(CNC(=O)C2CCCCC(=O)N2Cc2cccc(OC)c2)c1 (configuration not stated),,"inconclusive: 79.4 µM [inhibitor, single point]"
COc1cccc(C(=O)N2CCN(c3ccc4nnc(-c5ccccc5)n4n3)CC2)c1,,"inconclusive: 79.4 µM [inhibitor, partial curve]"
COc1cccc(CN2CCCCCNC(=O)CC2c2ccccc2)c1 (configuration not stated),,"inconclusive: 39.8 µM [inhibitor, partial curve, poor fit]"
O=C(Nc1nccs1)c1ccc2c(c1)OCCN(C1CCC1)C2,,"inconclusive: 100 µM [inhibitor, partial curve]"
COc1ccc(S(=O)(=O)N2CCC(c3noc(C4CC4)n3)C2)cc1 (configuration not stated),,"inconclusive: 79.4 µM [inhibitor, single point]"
COC(=O)N1CCc2nc(-c3ccc(OC)cc3)nc(-c3ccccc3)c2C1,,"inconclusive: 89.1 µM [inhibitor, single point]"
Cn1cccc1CN1CCC(N2CC(OCC3CC3)C23CCCCC3)CC1 (configuration not stated),,"inconclusive: 50.1 µM [inhibitor, partial curve, poor fit]"

Structure (SMILES),"activity change, negative = cytotoxicity",Potency
CC1(C(=O)N2CCN(c3ccccn3)CC2)CCc2cnc(NCc3ccccc3)nc21 (configuration not stated),,active: 100 µM
Cc1nn(-c2ccccn2)c(C)c1[C@@H]1C=C[C@@H](NC(=O)CCC(=O)O)C1,inactive: -22.9% [at 172 µM],
COc1ccc(C2Cn3cnc(C(=O)N4CCC(C(=O)NCc5ccccn5)CC4)c3CO2)cc1 (configuration not stated),inactive: 5.28%,
CC(C)C[C@@H]1N[C@H](C(=O)NCc2ccncc2)Cc2cn(Cc3ccncc3)c3cccc1c23,,active: 50.1 µM
CN(C)c1nc2c(c(=O)[nH]1)CCN(Cc1cccc(F)c1F)CC2,,"inconclusive: 44.7 µM [inhibitor, partial curve, poor fit]"
COCCNc1ncc(-c2cccc(N[S+](C)(=O)[O-])c2)c2c1OCC2,,"inconclusive: 63.1 µM [inhibitor, full curve]"
O=C(c1cccnc1)N1CCCC(CCc2c(F)cccc2F)C1 (configuration not stated),,"inconclusive: 44.7 µM [inhibitor, partial curve, poor fit]"
C=CCN1CCN(C(=O)c2ccc3c(c2)C(O)CCCCCN3CCOC)CC1 (configuration not stated),,"inconclusive: 89.1 µM [inhibitor, single point]"
CC[C@H]1CN(C(=O)Nc2cccc(C(F)(F)F)c2)CC[C@H]1CC(=O)NCc1ccc(F)cc1,,"inconclusive: 35.5 µM [inhibitor, partial curve, poor fit]"
CC1CCc2nn3ccn(CC(=O)Nc4cccc(Cl)c4)c(=O)c3c2C1 (configuration not stated),,"inconclusive: 50.1 µM [inhibitor, partial curve, poor fit]"
CCN(CC)C(=O)[C@@H]1CCC[C@@H](NCc2ccc(F)cc2)CN(C)C(=O)C1,inactive: 2.66% [at 172 µM],
COc1cc(NC(=O)Cn2c(-c3ccc(F)cc3)nc(C)c(CCO)c2=O)cc(OC)c1OC,inactive: 1.45%,
COc1ccc(C)cc1NC(=O)c1cnc(-c2ccc(F)cc2)nc1-c1ccncc1,inactive: -34.1%,
O=C(NC1CCCCCC1)c1cn2cc(-c3cccnc3)sc2n1,,"inconclusive: 79.4 µM [inhibitor, partial curve, poor fit]"
Cc1cc(C)cc(-c2ccc(CN3CCCC3C(=O)N3CCN(C)CC3)cc2)c1 (configuration not stated),,"inconclusive: 50.1 µM [inhibitor, partial curve, poor fit]"
C=CCOc1c(OC)ccc2c1CN(Cc1ccco1)C(=O)CCN2CC(O)COc1ccc(OC)cc1 (configuration not stated),,"inconclusive: 44.7 µM [inhibitor, partial curve]"
CCOC(=O)C1CCN(C(=O)C2COC3(CCCC(C)C3)N2C(=O)c2ccccc2F)CC1 (configuration not stated),,"inconclusive: 100 µM [inhibitor, partial curve, poor fit]"
O=C(Cc1ccccn1)N1CCc2nc(-c3ccc(Cl)cc3)nc(-c3ccccc3)c2C1,,"inconclusive: 50.1 µM [inhibitor, partial curve, poor fit]"
O=C(NCc1ccc(Cl)cc1)c1ccc2nnc(C3CC3)n2c1,,"inconclusive: 50.1 µM [inhibitor, partial curve, poor fit]"
O=C(C1CC1)N1CCCN(CCc2ccccc2)c2ccccc21,,"inconclusive: 35.5 µM [inhibitor, partial curve, poor fit]"
O=C1CN(C(=O)c2ccc(Cl)cc2)CC(O)CN1CCOc1ccccc1 (configuration not stated),,"inconclusive: 50.1 µM [inhibitor, partial curve, poor fit]"
C#CCN(C)C(=O)[C@@H](C)C1CC[C@@]2(C)Cc3sc(NCCCC)nc3[C@@H](C)[C@@H]2[C@H]1O (some centres not stated),,"inconclusive: 89.1 µM [inhibitor, partial curve, poor fit]"
CCn1cnnc1CC1CCN(C(=O)c2ccc3cc[nH]c3c2)C1 (configuration not stated),inactive: -4.09%,

Structure (SMILES),"activity change, negative = cytotoxicity",Potency
O=C(c1ccc(F)c(F)c1)N1CCCC(n2cc(-c3nc(C4CC4)no3)nn2)C1 (configuration not stated),,"inconclusive: 35.5 µM [inhibitor, full curve]"
CN(CCCN1c2ccccc2CCc2ccccc21)C(=O)C1CNCCO1 (configuration not stated),,"inconclusive: 56.2 µM [inhibitor, partial curve, poor fit]"
CCN(CC)CCNC(=O)C12CCCC=C1N(c1ccccc1)C(=O)CC2 (configuration not stated),inactive: -24%,
CC1Oc2ccc(NC(=O)c3ccc(F)cc3F)cc2CN(CCc2ccccc2)C1=O (configuration not stated),,"inconclusive: 89.1 µM [inhibitor, single point]"
CC(C)(C)CC(=O)Nc1cnc(-c2ccc(Cl)cc2)nc1,,active: 44.7 µM
CCOc1cc(=O)n2c(c1C(=O)Nc1cc(C)ccc1OC)CCCC2,,"inconclusive: 3.16 µM [inhibitor, full curve]"
COc1ccc(N2CCN(C(=O)COc3ccc(-c4nnc5n4CCCC5)cc3)CC2)cc1,,"inconclusive: 79.4 µM [inhibitor, single point]"
CC(C)NC(=O)c1cc(-c2ccccc2C(F)(F)F)nc2c1cnn2C,inactive: -13.2%,
Cc1nn2c(c1-c1cccnc1N1CCOCC1)N(C(=O)c1cc3ccccc3n1C)CCC2,inactive: -11.1%,
Cc1ccccc1N1CCN(C2CCCN(C(=O)c3ccc(-c4ccco4)cc3)C2)CC1 (configuration not stated),inactive: -17.5%,
Cc1nn(C)c(C)c1CCC(=O)N1CCCC(N(C)C)CC1 (configuration not stated),,"inconclusive: 7.94 µM [inhibitor, full curve]"
O=c1n(CC2CC2)nc2n1CCC(NS(=O)(=O)c1ccc3c(c1)OCCO3)CC2 (configuration not stated),inactive: -11.2%,
COc1ccc(C(=O)N2CCC(Oc3ccc(C(=O)N4CCOCC4)cn3)CC2)cc1,,"inconclusive: 100 µM [inhibitor, single point]"
CC(C)C(NC(=O)C1CCC1)C(=O)N1CCN(c2ccccn2)CC1 (configuration not stated),inactive: -3.05%,
CN(C)C(=O)c1ccnc(-c2nnc3ccc(NCCc4ccccc4)nn23)c1,,"inconclusive: 112 µM [inhibitor, single point]"
CCCCNC(=O)c1ccc2c(c1)N(S(=O)(=O)c1ccccc1F)CC2,,"inconclusive: 89.1 µM [inhibitor, single point]"
CC[C@@H](NC(C)=O)C(=O)N1CCOc2c(cc(-c3cccs3)cc2OC)C1,,"inconclusive: 89.1 µM [inhibitor, single point]"
CCOc1ccccc1CNC(=O)c1ccc2c(c1)N(S(C)(=O)=O)CC2,,"inconclusive: 44.7 µM [inhibitor, partial curve, poor fit]"
O=C(c1ccc(Cl)cc1)N1CCC2(CC1)C(=O)Nc1ccccc12,inactive: -16.8%,
COCC1CN(C(=O)CCc2c(C)nn(C)c2C)CC12CCNCC2 (configuration not stated),inactive: -3.7%,
COc1cccc(C(=O)N2CCCC(Cc3noc(-c4ccncc4)n3)C2)c1 (configuration not stated),,"inconclusive: 89.1 µM [inhibitor, single point]"
